± gives the standard deviation of the averaged measurements. Some of the results follow.
These sequences were tested on PfAP2-LT AP2 domain (GST-tagged) (assay: gcPBM binding intensity (ln(normalized median fluorescence intensity)); higher = stronger DNA binding).
How it was run: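 GST-tagged P. falciparum DNA-binding domains produced in E. coli were incubated for 1 h on an Agilent 4 × 180k array of primer-extended double-stranded 36-bp intergenic genomic probes with negative controls. Binding intensity is the highest Masliner-normalised natural-log median intensity across replicate spots of either probe orientation, with bound protein detected by Alexa488 anti-GST antibody at 488 nm.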

| Sequence | gcPBM binding intensity (ln) |
| --- | --- |
| TATATATATATATATACACACTTGTGCAGAATATTA [CACACA_site5257] | 9.79 ± 0.057 |
| TATAAATGTGTATGCGCATGTAAAAATATAATTTAT [TGCATGCA_site750] | 9.01 ± 0.43 |
| GTAAATAATAAACACCGTACATGGTATAATTCAATG [XGTACX_site3655] | 9.11 ± 0.41 |
| AAATAAATAAATAGACGTACAAAAATATTATACATT [XGTACX_site6776] | 8.96 ± 0.52 |
| AATAATGAAAAAATGAATAAAATTACTATATAATTC [XGTACX_negctrl_site457] | 8.49 ± 0.64 |
| GATATGATGTGTTTGGTAGTTTTTGATGTTGGCATG [GTGCAC_negctrl_site506] | 9.03 ± 0.45 |
| ACAAAAAATTAATGAGAAATGGAATAATAAGTTATA [GTGCAC_negctrl_site321] | 8.61 ± 0.54 |
| GGATATTAATAAATATGTACATATGTAGATTTATTA [XGTACX_site554] | 8.93 ± 0.45 |
| TATAAATAGAGGAAGCGTACATATATATATATATAT [XGTACX_site4993] | 10 ± 0.38 |
| TGTATACCTTAATATACACACATACCTATATTTATA [CACACA_site6746] | 8.95 ± 0.42 |
| ATATATAAATATATATGTACATAAATATATATCTTT [XGTACX_site6910] | 8.85 ± 0.31 |
| AAGAAAAAAAAAAAAACACACATATATATATATATA [CACACA_site2027] | 10.1 ± 0.14 |
| AGGTGCTTAATATATACACACATACAGATATATATA [CACACA_site5552] | 9.12 ± 0.37 |
| TTTTTCTTATTTGGATTGCACTACATATATATATAT | 9.1 ± 0.59 |
| GAACTCATTACAAAGTGTACAAATTAAATAAATGGT [XGTACX_site3995] | 9.07 ± 0.52 |
| ATAAGGTTACAACAAACACACAAAGGAATATACACA [CACACA_site7840] | 9.35 ± 0.5 |
| AAAATTTTTTGAAATAGTACTTTTTTATATATATAT [XGTACX_site2634] | 8.52 ± 0.33 |
| CAACAAAATAAACACACACACACAAACACAAAAAAA [CACACA_site5806] | 10.2 ± 0.27 |
| TATAAATTTATATATGCATGTCAGAAAAAAAAGTAA [TGCATGCA_site414] | 8.59 ± 0.49 |
| ATATTTTATACTTGCACACAAAATATATTAGAATGT [CACACA_site1985] | 9.11 ± 0.4 |
| GAAATCTAATTTATTACACACATTTGAAAAAAATTC [CACACA_site6640] | 8.64 ± 0.42 |
| ACCCATTTTTGTTGTTCTATATATTCGTGAATCATT [CACACA_negctrl_site614] | 9.02 ± 0.45 |
| TTATATTTTTTTGAGTGTACTTTTTGTGTAAAATTC [XGTACX_site2155] | 8.66 ± 0.49 |

| Sequence | gcPBM binding intensity (ln) |
| --- | --- |
| TTACTAAGAAGGATTTATTTTATAAAAATATTTATT [XGTACX_negctrl_site549] | 8.2 ± 0.54 |
| AATTTTTTGAATAATTGTACATATTTGGTTAAATAT [XGTACX_site3612] | 8.56 ± 0.48 |
| TATTTTTATTGGTGAATACACACGTATATATATATT [CACACA_site2401] | 9.02 ± 0.35 |
| TGTTTATGTTTACATGTGCGCATTACAGAAAAAAAA [GTGCAC_site9669] | 8.65 ± 0.39 |
| TTTTTATTTAAAAGTAGTACAAGGGTTATTATTAAC [XGTACX_site1555] | 8.46 ± 0.52 |
| ACATGTATACTTTTTACGAAAAAAAAAAAAAAAAAA [CACACA_negctrl_site1638] | 8.43 ± 0.39 |
| TTTTTTTTTTTTTTTGCACACTTAAATTTGGTGGGG [CACACA_site2344] | 9.63 ± 0.057 |
| TACAGATAAATATACATACATATATATATATATATA [XGTACX_negctrl_site182] | 9.57 ± 0.042 |
| ATATTATTTTATTTTTGTACAGATATCTTTAAAAAA [XGTACX_site3734] | 8.42 ± 0.37 |
| CACGCGCACGAACACACACACACACGCATATAAATA [CACACA_site7103] | 9.86 ± 0.33 |
| AACATCATCTCTCCACAACAACAAAAAAAAAAATAC [CACACA_negctrl_site311] | 8.82 ± 0.43 |
| TTATTAAAAATGGTATGTACGCACATAATATATATA [XGTACX_site3230] | 8.91 ± 0.47 |
| AATACATACATACATACATGCATATATATATATATA [TGCATGCA_site462] | 9.97 ± 0.34 |
| AAAATTATATGTAATTGTACGGAATTATATACGCAA [XGTACX_site2048] | 8.72 ± 0.41 |
| TCCTGTGGTTATATAACACACATTATTGCTTATAAG [CACACA_site6823] | 8.9 ± 0.37 |
| TTTTTTAAAAATATTATCATCGTAACAAGAAATCGA [CACACA_negctrl_site1111] | 8.22 ± 0.37 |
| ATGATTTATTATTATACACACAAAAAAAAAAAAGGA [CACACA_site264] | 8.84 ± 0.42 |
| GAACAAAAAAAAAATTGTACACAATTTTTTAAAATT [XGTACX_site4455] | 8.54 ± 0.54 |
| AATACATACATATATACATGCATACATATAAATATA [TGCATGCA_site674] | 9 ± 0.4 |
| GCTTATAAGATATGCACACACAACACTTACAAAAAA [CACACA_site817] | 9.39 ± 0.35 |
| AAACAAAAAAAATAAGCACACATATATATATATATA [CACACA_site8173] | 9.6 ± 0.57 |
| ATTTTATGAAATGTTGCACACAAAAAACAACATGTT [CACACA_site8408] | 9.06 ± 0.33 |
| GAACAACAACAAAAAAAAAAAAAAAAAAAAAAAAAA [CACACA_negctrl_site199] | 8.12 ± 0.35 |

| Sequence | gcPBM binding intensity (ln) |
| --- | --- |
| TAAATAAATATATGTACACACACAAATATATACATA [CACACA_site8577] | 9.24 ± 0.29 |
| TATATGATATAATATACACACATACATATATATATA [CACACA_site8066] | 9.27 ± 0.042 |
| CTGAATTTTTATAACTGTACATATTTGATATAAAAA [XGTACX_site183] | 8.29 ± 0.38 |
| ATATTTAATACAAATACACACACAAATATATACATA [CACACA_site9248] | 9.5 ± 0.23 |
| ATGGGAAAAACATTCCGTACATACATACACATATAT [XGTACX_site8263] | 8.99 ± 0.41 |
| ATATTGCTTATTTGATGTACGAATACACTAGTATTA [XGTACX_site4536] | 8.88 ± 0.44 |
| TATCTGTATATGTGTACACATATTCTTAACTCACGC [CACACA_site4255] | 9.18 ± 0.48 |
| ATACTAAATGAACACACACACATATAGATTTATAAC [CACACA_site6200] | 9.79 ± 0.42 |
| AATATTTTAAAAAAATGTACTTTTAACCCTTATTGG [XGTACX_site3490] | 8.45 ± 0.45 |
| TATAAAATATAAATTTGTACATATAAAATATTTTAT [XGTACX_site7462] | 8.43 ± 0.45 |
| TTTTTTAAAATATAAAATATGTACAAATATGTTGAA [GTGCAC_negctrl_site379] | 8.27 ± 0.47 |
| TAATAGTTATAAAATACACACCAGGCATGATAAATG [CACACA_site4335] | 8.95 ± 0.4 |
| TATATATATATACATACATATAAAGTTACATAAACA [CACACA_negctrl_site432] | 8.76 ± 0.45 |
| GAACAAACAAAGAAAGAACACACATACACAATATAC [CACACA_site8918] | 9.6 ± 0.38 |
| TAGATTTTTTTACATTGTACATATTTTTTCTTATAG [XGTACX_site293] | 8.76 ± 0.54 |
| ATATATGGGTAGTATACACACTGTATATTTAGGAAT [CACACA_site7357] | 9.02 ± 0.47 |
| GTATGAAAAAAATATGCATGCTAAATAATAAATGTT [TGCATGCA_site352] | 8.96 ± 0.4 |
| ATCATTTTTATAAATTGTACAAATATTTTTTATACA [XGTACX_site7551] | 8.54 ± 0.45 |
| ATTTCGTAATTTATATCACACACATATATATATAAT [CACACA_site9021] | 9.2 ± 0.42 |
| TTATATAAATATAAGGTGCTGGGGTTTATTACATAT [GTGCAC_site9909] | 9.18 ± 0.5 |
| CACCAATTCATATGCACACACATCTGCATATTATAG [CACACA_site6925] | 9.39 ± 0.3 |
| ATATCGCACGTTTGAAGTACATAAAAACGATTAATA [XGTACX_site7684] | 8.87 ± 0.38 |
| CATATTATTTATATTTGTACACAGCGATATGAAATA [XGTACX_site7717] | 8.68 ± 0.35 |

| Sequence | gcPBM binding intensity (ln) |
| --- | --- |
| CTTACATAAAATATCACACACATAAAAAAACAATAT [CACACA_site1901] | 9.3 ± 0.42 |
| TATATATATATATATGTGCACATATATATGATATTA | 9.61 ± 0.28 |
| GTACATTATATATATACACACATACATAATAAAGAA [CACACA_site5528] | 9.24 ± 0.32 |
| ATATGCTATTAATTATGTACATATATATATATATAT [XGTACX_site4901] | 9.26 ± 0.33 |
| GGACTATACAGTTATACACACACATATATATATAAT [CACACA_site7991] | 9.6 ± 0.4 |
| ACTACGTGTCAAAAATATTAATTACAAATGAATAAA [GTGCAC_negctrl_site248] | 8.44 ± 0.43 |
| TATTAATATATAGTAGTGCAATAAAGATATACTGAA | 8.83 ± 0.51 |
| AACATACTCACGAACATACACACGGACATACATACG [CACACA_site603] | 9.51 ± 0.16 |
| ATGCATACACTTATATGTACACATTTACATATTATT [XGTACX_site2841] | 9.16 ± 0.48 |
| CGAAAGGAAATATAACGTACATAAGATTATATTCAC [XGTACX_site3868] | 8.88 ± 0.45 |
| AATAAATAAATATATTGTACATATATATATATATAT [XGTACX_site8627] | 9.38 ± 0.63 |
| ATGAACAAGGGGCACACACACATTATGACTAATTTA [CACACA_site3204] | 9.6 ± 0.45 |
| TATTAAAAGAAAAAAAAAAAAAAATTAATACATATA [XGTACX_negctrl_site582] | 8.32 ± 0.54 |
| ACATGTAAATTTACATGTACATGTAACACTTAATAT [XGTACX_site4575] | 8.98 ± 0.28 |
| AAAACAAACGGACACACACACATATATATATATATA [CACACA_site5924] | 10.2 ± 0.44 |
| TAATATTTTAATTGTGTGCACATTAATATTATAAAA | 8.84 ± 0.42 |
| TTTAGTGAGTTTGTTGTGCACTGAAAAAATTACAAT | 8.56 ± 0.35 |
| TATATTATTTTTTGTGGTACATGTATTTTTACCTAA [XGTACX_site4348] | 8.84 ± 0.42 |
| TACATATTTACTATCACACACACGATATATATAAAT [CACACA_site1242] | 9.35 ± 0.26 |
| ATACGAAAAAATAGACGTACTATGAAATAATAATTT [XGTACX_site8387] | 9.01 ± 0.45 |

Reference: the supplement of paper PMC11417369
